Data reported in a collection of fitness landscapes (doi:10.1126/science.1257360).
This is one part of the list.

B1: PhoQ; a variant is named by its letters at X, in order, P23837 (parent)
chain: MKKLLRLFFPLSLRVRFLLATAAVVLVLSLAYGMVALIGYSVSFDKTTFRLLRGESNLFYTLAKWENNKLHVELPENIDKQSPTMTLIYDENGQLLWAQRDVPWLMKMIQPDWLKSNGFHEIEADVNDTSLLLSGDHSIQQQLQEVREDDDDAEMTHSVAVNVYPATSRMPKLTIVVVDTIPVELKSSYMVWSWFIYVLSANLLLVIPLLWVAAWWSLRPIEALAKEVRELEEHNRELLNPATTRELTSLVRNLNRLLKSERERYDKYRTTLTDLTHSLKTPLXXLQXXLRSLRSEKMSVSDAEPVMLEQISRISQQIGYYLHRASMRGGTLLSRELHPVAPLLDNLTSALNKVYQRKGVNISLDISPEISFVGEQNDFVEVMGNVLDNACKYCLEFVEISARQTDEHLYIVVEDDGPGIPLSKREVIFDRGQRVDTLRPGQGVGLAVAREITEQYEGKIVAGESMLGGARMEVIFGRQHSAPKDE

Variants of: B1
Assay: enrichment ratio after two sorts for PhoP signalling (ratio (wild type AVST 3.29)); higher = more functional
Settings: with PhoP (E. coli)

Q: How did the enrichment ratio turn out when FHED was run?
A: ≤ 0.25

Q: Which enrichment ratio does the source give for LAGG here?
A: ≤ 0.25

Q: TQFV was tested. Which enrichment ratio did it give?
A: 2.48

Q: Which enrichment ratio does the source give for FRET here?
A: ≤ 0.25

Q: With FLFV as the variant, how does the enrichment ratio read?
A: ≤ 0.25

Q: Which enrichment ratio does the source give for GGFN here?
A: ≤ 0.25

Q: For EKRH, which enrichment ratio is on record?
A: ≤ 0.25

Q: For FSII, which enrichment ratio is on record?
A: 1.77

Q: How did the enrichment ratio turn out when SYHY was run?
A: ≤ 0.25

Q: For IIAL, which enrichment ratio is on record?
A: ≤ 0.25

Q: Which enrichment ratio does the source give for TWHA here?
A: ≤ 0.25

Q: How did the enrichment ratio turn out when DYVI was run?
A: ≤ 0.25

Q: Which enrichment ratio does the source give for YKLF here?
A: ≤ 0.25

Q: With NQNG as the variant, how does the enrichment ratio read?
A: ≤ 0.25

Q: LKHI was tested. Which enrichment ratio did it give?
A: ≤ 0.25

Q: How did the enrichment ratio turn out when QELD was run?
A: ≤ 0.25

Q: QQYI was tested. Which enrichment ratio did it give?
A: ≤ 0.25

Q: NKPC was tested. Which enrichment ratio did it give?
A: ≤ 0.25

Q: YHNS was tested. Which enrichment ratio did it give?
A: ≤ 0.25

Q: TWAD was tested. Which enrichment ratio did it give?
A: ≤ 0.25

Q: With RSIM as the variant, how does the enrichment ratio read?
A: ≤ 0.25

Q: Which enrichment ratio does the source give for TSSG here?
A: 14.4

Q: For PKLS, which enrichment ratio is on record?
A: ≤ 0.25

Q: How did the enrichment ratio turn out when ENYV was run?
A: ≤ 0.25

Q: With HDWS as the variant, how does the enrichment ratio read?
A: ≤ 0.25

Q: PSLG was tested. Which enrichment ratio did it give?
A: ≤ 0.25

Q: For KNRY, which enrichment ratio is on record?
A: ≤ 0.25

Q: Which enrichment ratio does the source give for LANL here?
A: ≤ 0.25

Q: YACY was tested. Which enrichment ratio did it give?
A: ≤ 0.25

Q: For DKLK, which enrichment ratio is on record?
A: ≤ 0.25

Q: How did the enrichment ratio turn out when TLSF was run?
A: 4.9

Q: Which enrichment ratio does the source give for ECYQ here?
A: ≤ 0.25

Q: For EINC, which enrichment ratio is on record?
A: ≤ 0.25

Q: How did the enrichment ratio turn out when IRWS was run?
A: ≤ 0.25

Q: How did the enrichment ratio turn out when WYWG was run?
A: ≤ 0.25

Q: DEYC was tested. Which enrichment ratio did it give?
A: ≤ 0.25

Q: NYGH was tested. Which enrichment ratio did it give?
A: ≤ 0.25

Q: Which enrichment ratio does the source give for YWSH here?
A: ≤ 0.25

Q: How did the enrichment ratio turn out when EDLK was run?
A: ≤ 0.25

Q: KKGM was tested. Which enrichment ratio did it give?
A: ≤ 0.25

Q: With STPL as the variant, how does the enrichment ratio read?
A: 8

Q: With LANV as the variant, how does the enrichment ratio read?
A: ≤ 0.25

Q: Which enrichment ratio does the source give for MGTK here?
A: ≤ 0.25

Q: How did the enrichment ratio turn out when VEMC was run?
A: 15.7

Q: Which enrichment ratio does the source give for GMGA here?
A: ≤ 0.25

Q: With ITLA as the variant, how does the enrichment ratio read?
A: 0.339

Q: How did the enrichment ratio turn out when SFWY was run?
A: ≤ 0.25

Q: With FTHY as the variant, how does the enrichment ratio read?
A: ≤ 0.25

Q: For APGY, which enrichment ratio is on record?
A: ≤ 0.25

Q: With ECKF as the variant, how does the enrichment ratio read?
A: ≤ 0.25

Q: AHRI was tested. Which enrichment ratio did it give?
A: ≤ 0.25

Q: TRVS was tested. Which enrichment ratio did it give?
A: 0.901

Q: RNTM was tested. Which enrichment ratio did it give?
A: ≤ 0.25

Q: For GNWR, which enrichment ratio is on record?
A: ≤ 0.25

Q: For QFCI, which enrichment ratio is on record?
A: 8.89

Q: FKIE was tested. Which enrichment ratio did it give?
A: ≤ 0.25

Q: With RRFY as the variant, how does the enrichment ratio read?
A: ≤ 0.25

Q: With FSHW as the variant, how does the enrichment ratio read?
A: ≤ 0.25

Q: NYST was tested. Which enrichment ratio did it give?
A: ≤ 0.25

Q: With TTDM as the variant, how does the enrichment ratio read?
A: 22.8

Q: For QYIQ, which enrichment ratio is on record?
A: ≤ 0.25

Q: FVMM was tested. Which enrichment ratio did it give?
A: 8.76

Q: For KGFR, which enrichment ratio is on record?
A: ≤ 0.25

Q: For RMPQ, which enrichment ratio is on record?
A: ≤ 0.25

Q: Which enrichment ratio does the source give for FRHY here?
A: ≤ 0.25

Q: EDKL was tested. Which enrichment ratio did it give?
A: ≤ 0.25

Q: AMAK was tested. Which enrichment ratio did it give?
A: ≤ 0.25

Q: How did the enrichment ratio turn out when TRRV was run?
A: ≤ 0.25

Q: Which enrichment ratio does the source give for GTYK here?
A: ≤ 0.25

Q: With FKAW as the variant, how does the enrichment ratio read?
A: ≤ 0.25

Q: With NDYN as the variant, how does the enrichment ratio read?
A: ≤ 0.25

Q: Which enrichment ratio does the source give for DGGN here?
A: ≤ 0.25

Q: For KMPS, which enrichment ratio is on record?
A: ≤ 0.25

Q: Which enrichment ratio does the source give for HQNL here?
A: ≤ 0.25

Q: For FMPK, which enrichment ratio is on record?
A: ≤ 0.25

Q: Which enrichment ratio does the source give for DYFV here?
A: ≤ 0.25

Q: How did the enrichment ratio turn out when TFYR was run?
A: ≤ 0.25

Q: How did the enrichment ratio turn out when HGNR was run?
A: ≤ 0.25

Q: Which enrichment ratio does the source give for WKPP here?
A: ≤ 0.25

Q: FIHK was tested. Which enrichment ratio did it give?
A: ≤ 0.25

Q: How did the enrichment ratio turn out when SMQT was run?
A: ≤ 0.25

Q: How did the enrichment ratio turn out when QERA was run?
A: ≤ 0.25

Q: With RTTV as the variant, how does the enrichment ratio read?
A: ≤ 0.25

Q: SDKD was tested. Which enrichment ratio did it give?
A: ≤ 0.25

Q: How did the enrichment ratio turn out when LHQD was run?
A: ≤ 0.25

Q: AYKP was tested. Which enrichment ratio did it give?
A: ≤ 0.25

Q: ALFA was tested. Which enrichment ratio did it give?
A: ≤ 0.25

Q: With LVPA as the variant, how does the enrichment ratio read?
A: ≤ 0.25

Q: How did the enrichment ratio turn out when WAFA was run?
A: ≤ 0.25

Q: GQWT was tested. Which enrichment ratio did it give?
A: ≤ 0.25

Q: Which enrichment ratio does the source give for GCQF here?
A: ≤ 0.25

Q: How did the enrichment ratio turn out when IRVS was run?
A: ≤ 0.25

Q: How did the enrichment ratio turn out when QERK was run?
A: ≤ 0.25

Q: With SEIA as the variant, how does the enrichment ratio read?
A: 13.7

Q: Which enrichment ratio does the source give for SCND here?
A: 6.36

Q: For NNDD, which enrichment ratio is on record?
A: ≤ 0.25

Q: With DQGQ as the variant, how does the enrichment ratio read?
A: ≤ 0.25

Q: For DWTA, which enrichment ratio is on record?
A: ≤ 0.25

Q: How did the enrichment ratio turn out when GSIA was run?
A: 2.35

Q: Which enrichment ratio does the source give for LWFL here?
A: ≤ 0.25

Q: How did the enrichment ratio turn out when RHNE was run?
A: ≤ 0.25

Q: For WDFT, which enrichment ratio is on record?
A: ≤ 0.25

Q: GQLV was tested. Which enrichment ratio did it give?
A: 7.76

Q: Which enrichment ratio does the source give for WQFF here?
A: ≤ 0.25

Q: With WTDK as the variant, how does the enrichment ratio read?
A: ≤ 0.25

Q: How did the enrichment ratio turn out when GHKI was run?
A: ≤ 0.25

Q: Which enrichment ratio does the source give for DIIW here?
A: ≤ 0.25

Q: How did the enrichment ratio turn out when TIVS was run?
A: ≤ 0.25

Q: Which enrichment ratio does the source give for SVMS here?
A: 8.47

Q: ARTQ was tested. Which enrichment ratio did it give?
A: ≤ 0.25

Q: Which enrichment ratio does the source give for QREL here?
A: ≤ 0.25

Q: KTVS was tested. Which enrichment ratio did it give?
A: ≤ 0.25

Q: For YNDE, which enrichment ratio is on record?
A: ≤ 0.25

Q: Which enrichment ratio does the source give for VLGW here?
A: ≤ 0.25

Q: Which enrichment ratio does the source give for NAFY here?
A: ≤ 0.25

Q: With ELNQ as the variant, how does the enrichment ratio read?
A: ≤ 0.25

Q: GFSL was tested. Which enrichment ratio did it give?
A: ≤ 0.25

Q: For FCFC, which enrichment ratio is on record?
A: ≤ 0.25

Q: PCQH was tested. Which enrichment ratio did it give?
A: ≤ 0.25

Q: DLPN was tested. Which enrichment ratio did it give?
A: ≤ 0.25

Q: For WRTF, which enrichment ratio is on record?
A: ≤ 0.25

Q: How did the enrichment ratio turn out when IKVG was run?
A: ≤ 0.25

Q: KRCT was tested. Which enrichment ratio did it give?
A: ≤ 0.25

Q: With INVM as the variant, how does the enrichment ratio read?
A: 1.19

Q: How did the enrichment ratio turn out when RKQC was run?
A: ≤ 0.25

Q: Which enrichment ratio does the source give for YDDF here?
A: ≤ 0.25

Q: With RKWV as the variant, how does the enrichment ratio read?
A: ≤ 0.25

Q: How did the enrichment ratio turn out when EIPW was run?
A: ≤ 0.25

Q: Which enrichment ratio does the source give for PNEY here?
A: ≤ 0.25

Q: AATH was tested. Which enrichment ratio did it give?
A: 10.7

Q: HETG was tested. Which enrichment ratio did it give?
A: 4.38

Q: Which enrichment ratio does the source give for KKNW here?
A: ≤ 0.25

Q: How did the enrichment ratio turn out when YGMD was run?
A: ≤ 0.25

Q: Which enrichment ratio does the source give for SVVI here?
A: 0.732

Q: With RLMV as the variant, how does the enrichment ratio read?
A: ≤ 0.25

Q: With PYVP as the variant, how does the enrichment ratio read?
A: ≤ 0.25

Q: With VEKD as the variant, how does the enrichment ratio read?
A: ≤ 0.25

Q: Which enrichment ratio does the source give for TGPY here?
A: ≤ 0.25

Q: Which enrichment ratio does the source give for VSKH here?
A: ≤ 0.25

Q: How did the enrichment ratio turn out when AQCK was run?
A: 29.5

Q: PASP was tested. Which enrichment ratio did it give?
A: ≤ 0.25

Q: With KLWT as the variant, how does the enrichment ratio read?
A: ≤ 0.25

Q: Which enrichment ratio does the source give for FESE here?
A: ≤ 0.25

Q: DVQV was tested. Which enrichment ratio did it give?
A: ≤ 0.25

Q: Which enrichment ratio does the source give for WEFI here?
A: ≤ 0.25

Q: How did the enrichment ratio turn out when PCAY was run?
A: ≤ 0.25

Q: Which enrichment ratio does the source give for DKCK here?
A: ≤ 0.25

Q: With IKYG as the variant, how does the enrichment ratio read?
A: ≤ 0.25

Q: For QRVK, which enrichment ratio is on record?
A: ≤ 0.25

Q: How did the enrichment ratio turn out when RHMI was run?
A: ≤ 0.25

Q: How did the enrichment ratio turn out when KATT was run?
A: ≤ 0.25

Q: With MFVH as the variant, how does the enrichment ratio read?
A: ≤ 0.25

Q: For VWKG, which enrichment ratio is on record?
A: ≤ 0.25
